Consider three molecules from patent US20140004122A1, “METHODS FOR TREATING OR PREVENTING CHOLESTEROL RELATED DISORDERS” (AMGEN INC., priority 2011, published 2014).

For test [1], the target named is T1, PCSK9 (Homo sapiens, UniProt Q8NBP7). In words: BIAcore affinity analysis. The format is binding. The conditions noted are these: pH 7.4 (Table 7.2). Here is the method:
Briefly, the surface plasmon resonance experiments were performed using Biacore 2000 optical biosensors (Biacore, GE Healthcare, Piscataway, N.J.). […] The concentration of PCSK9 protein was varied at 2 fold intervals (the analyte) and was injected over the immobilized antibody surface (at a flow rate of 100 μl/min for 1.5 minutes). Fresh HBS-P buffer (pH 7.4, 0.01 M Hepes, 0.15 M NaCl, 0.005% surfactant P-20, Biacore) supplemented with 0.01% BSA was used as binding buffer.
The binding signal obtained was proportional to the free PCSK9 in solution.
Antibody binding kinetic parameters including ka (association rate constant), kd (dissociation rate constant), and KD (dissociation equilibrium constant) were determined using the BIA evaluation 3.1 computer program (BIAcore, Inc. Piscataway, N.J.).
A general note: Surface plasmon resonance follows binding to a sensor surface in real time, without labels.

The target in test [2] is T1, PCSK9. The experiment in a line: BIAcore affinity analysis. The format is binding. The conditions noted are these: for Kd: pH 6 (Table 7.2).
Test [3] has as its target D374Y human PCSK9 (HepG2 cells) (Homo sapiens, UniProt Q8NBP7, D374Y). The experiment in a line: Cell LDL uptake assay (Example 10). The test is classed as cell-based. The conditions noted are these: 2 μg/ml D374Y human PCSK9, HepG2 cells. Here is the method: Human HepG2 cells were seeded in black, clear bottom 96-well plates (Costar) at a concentration of 5×10^5 cells per well in DMEM medium (Mediatech, Inc) supplemented with 10% FBS and incubated at 37° C. (5% CO2) overnight. To form the PCSK9 and antibody complex, 2 μg/ml of D374Y human PCSK9 was incubated with various concentrations of antibody diluted in uptake buffer (DMEM with 1% FBS) or uptake buffer alone (control) for 1 hour at room temperature. After washing the cells with PBS, the D374Y PCSK9/antibody mixture was transferred to the cells, followed by LDL-BODIPY (Invitrogen) diluted in uptake buffer at a final concentration of 6 μg/ml. After incubation for 3 hours at 37° C. (5% CO2), cells were washed thoroughly with PBS and the cell fluorescence signal was detected by Safire™ (TECAN) at 480-520 nm (excitation) and 520-600 nm (emission).

The next test concerns the target D374Y PCSK9/LDLR binding (Homo sapiens, UniProt Q8NBP7, D374Y). In words: Blocking D374Y PCSK9/LDLR binding (Example 9). The conditions noted are these: 20 ng/ml biotinylated D374Y PCSK9. The method, then:
Clear 384 well plates (Costar) were coated with 2 micrograms/ml of goat anti-LDL receptor antibody (R&D Systems) diluted in buffer A (100 mM sodium cacodylate, pH 7.4). Plates were washed thoroughly with buffer A and then blocked for 2 hours with buffer B (1% milk in buffer A). After washing, plates were incubated for 1.5 hours with 0.4 micrograms/ml of LDL receptor (R&D Systems) diluted in buffer C (buffer B supplemented with 10 mM CaCl2). […] The LDL receptor containing plates were washed and the biotinylated D374Y PCSK9/antibody mixture was transferred to them and incubated for 1 hour at room temperature. Binding of the biotinylated D374Y to the LDL receptor was detected by incubation with streptavidin-HRP (Biosource) at 500 ng/ml in buffer C followed by TMB substrate (KPL). The signal was quenched with 1N HCl and the absorbance read at 450 nm.

Test [4] deals with T1, PCSK9. In words: BIAcore solution equilibrium binding assay. The conditions noted are these: 0.3, 1 and 3 nM fixed PCSK9; read-out: KD hPCSK9. An excerpt: Flow cell 3 was used as a background control. […] Although cPCSK9 has lower protein concentration observed from KinExA assay and SDS-gel, its concentration was not adjusted here since the concentration of cPCSK9 was not used for calculation of KD. […] FIG. 5B depicts the results from the solution equilibrium assay at three different hPCSK9 concentrations for hPCSK9. FIG. 5C depicts a similar set of results for mPCSK9. FIG. 5D depicts the results from the above biacore capture assay.

B1: 16F12.1: clone 1 of hybridoma line 16F12 (line number and clone number) (antibody)
heavy: QVHLVESGGGVVQPGRSLRLSCAASGFTFNSFGMHWVRQAPGKGLEWVALIWSDGSDEYYADSVKGRFTISRDNSKNTLYLQMNSLRAEDTAVYYCARAIAALYYYYGMDVWGQGTTVTVSSASTKGPSVFPLAPCSRSTSESTAALGCLVKDYFPEPVTVSWNSGALTSGVHTFPAVLQSSGLYSLSSVVTVPSSSLGTKTYTCNVDHKPSNTKVDKRV[human IgG4 Fc not spelt out]
light: QSVLTQPPSVSAAPGQKVTISCSGSSSNIGNNFVSWYQQLPGTAPKLLIYDYNKRPSGIPDRFSGSKSGTSATLGITGLQTGDEADYYCGTWDSSLSAYVFGTGTRVTVLQPKAAPSVTLFPPSSEELQANKATLVCLISDFYPGAVTVAWKADSSPVKAGVETTTPSKQSNNKYAASSYLSLTPEQWKSHRSYSCQVTHEGSTVEKTVAPTECS
As to B1, the Kd (as a rule, the free concentration of one partner at which half of the binding sites on the other are occupied at equilibrium, for simple one-to-one binding) with PCSK9 [1] is 0.47 nM; with PCSK9 [2], 0.029 nM. Moreover, the Koff with PCSK9 [2] (pH 6) is 7.007e-05 s⁻¹; with PCSK9 [2] (pH 7.4), 4.983e-05 s⁻¹. For the same molecule, the Kon in the test with PCSK9 [2] (pH 6) came to 2.392e+06 M⁻¹ s⁻¹; in the test with PCSK9 [2] (pH 7.4) it was 106400 M⁻¹ s⁻¹.

B2: 21B12 IgG4: human 21B12 IgG4 antibody produced from hybridomas (antibody)
heavy: QVQLVQSGAEVKKPGASVKVSCKASGYTLTSYGISWVRQAPGQGLEWMGWVSFYNGNTNYAQKLQGRGTMTTDPSTSTAYMELRSLRSDDTAVYYCARGYGMDVWGQGTTVTVSSASTKGPSVFPLAPCSRSTSESTAALGCLVKDYFPEPVTVSWNSGALTSGVHTFPAVLQSSGLYSLSSVVTVPSSSLGTKTYTCNVDHKPSNTKVDKRV[human IgG4 Fc not spelt out]
light: QSALTQPASVSGSPGQSITISCTGTSSDVGGYNSVSWYQQHPGKAPKLMIYEVSNRPSGVSNRFSGSKSGNTASLTISGLQAEDEADYYCNSYTSTSMVFGGGTKLTVLQPKAAPSVTLFPPSSEELQANKATLVCLISDFYPGAVTVAWKADSSPVKAGVETTTPSKQSNNKYAASSYLSLTPEQWKSHRSYSCQVTHEGSTVEKTVAPTECS
For the molecule B2, the IC50 (as a rule, the concentration that inhibits the measured activity by half) in test [3] was 18 nM; in the test with D374Y PCSK9/LDLR binding it was 0.169 nM.

B3: 21B12.1: clone 1 of hybridoma line 21B12 (line number and clone number) (antibody)
heavy: QVQLVQSGAEVKKPGASVKVSCKASGYTLTSYGISWVRQAPGQGLEWMGWVSFYNGNTNYAQKLQGRGTMTTDPSTSTAYMELRSLRSDDTAVYYCARGYGMDVWGQGTTVTVSSASTKGPSVFPLAPCSRSTSESTAALGCLVKDYFPEPVTVSWNSGALTSGVHTFPAVLQSSGLYSLSSVVTVPSSSLGTKTYTCNVDHKPSNTKVDKRV[human IgG4 Fc not spelt out]
light: QSALTQPASVSGSPGQSITISCTGTSSDVGGYNSVSWYQQHPGKAPKLMIYEVSNRPSGVSNRFSGSKSGNTASLTISGLQAEDEADYYCNSYTSTSMVFGGGTKLTVLQPKAAPSVTLFPPSSEELQANKATLVCLISDFYPGAVTVAWKADSSPVKAGVETTTPSKQSNNKYAASSYLSLTPEQWKSHRSYSCQVTHEGSTVEKTVAPTECS
In the case of B3, the values for the Kd in the test with PCSK9 [1], with PCSK9 [4] and in the test with PCSK9 [2] were 0.19 nM, 0.015 nM and 0.0073 nM, respectively. The Koff turned out to be 1.676e-05 s⁻¹ with PCSK9 [2] (pH 6) and 6.634e-06 s⁻¹ with PCSK9 [2] (pH 7.4). Further, the results for the Kon with PCSK9 [2] (pH 6) and in the test with PCSK9 [2] (pH 7.4) were 2.291e+06 M⁻¹ s⁻¹ and 34918 M⁻¹ s⁻¹, respectively.
